Test results from PubChem BioAssay AID1030 (National Center for Advancing Translational Sciences (NCATS), 2008).
About 16,000 (7.3%) of roughly 220,000 compounds were called active. The shares of active, inactive and inconclusive entries below differ from those in the screen. Calls come from the whole dose curve; as a rule, active = well fitted inhibition curve with a large enough effect (not every such curve was filed as active); inconclusive = small, poorly fitted or top-dose-only effect, or another doubt; inactive = no such curve, though single readings can be large or run the other way. No potency is given beside an inconclusive call; the fits are too rough.

These compounds were tested against Aldehyde dehydrogenase 1A1 (Homo sapiens) (UniProt P00352) (assay: qHTS Assay for Inhibitors of Aldehyde Dehydrogenase 1 (ALDH1A1)). Details: Purified ALDH1A1, NADH fluorescence, propionaldehyde substrate; series mostly up to 75.3 µM.
UniProt P00352, sequence (P00352 whole entry, looked up): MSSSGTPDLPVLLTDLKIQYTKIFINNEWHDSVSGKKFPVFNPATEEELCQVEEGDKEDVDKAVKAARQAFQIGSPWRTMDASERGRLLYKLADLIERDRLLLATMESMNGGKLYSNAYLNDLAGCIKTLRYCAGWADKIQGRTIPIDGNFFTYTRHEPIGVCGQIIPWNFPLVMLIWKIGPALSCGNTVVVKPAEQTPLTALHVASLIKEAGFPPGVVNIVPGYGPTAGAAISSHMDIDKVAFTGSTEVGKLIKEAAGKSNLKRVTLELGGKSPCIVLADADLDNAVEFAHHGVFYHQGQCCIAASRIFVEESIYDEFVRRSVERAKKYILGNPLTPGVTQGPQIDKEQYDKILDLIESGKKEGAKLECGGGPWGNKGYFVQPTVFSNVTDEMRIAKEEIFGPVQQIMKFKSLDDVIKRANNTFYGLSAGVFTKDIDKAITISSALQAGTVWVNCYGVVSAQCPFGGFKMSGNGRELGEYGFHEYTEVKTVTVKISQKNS
Potency is the fitted concentration of half-maximal effect; tags give direction and shape of the fitted curve.
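Throughout, for activity, negative = inhibition: plate controls were no enzyme wells and a reference inhibitor.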

SMILES	Potency	activity, negative = inhibition
O=C(Nc1nc(-c2cccs2)c(-c2ccccc2)s1)c1ccco1	inconclusive [inhibitor, partial curve]	
CC(C)(C)Cc1nnc(NS(=O)(=O)c2ccccc2)s1	inconclusive [inhibitor, single point]	
COc1cccc2cc(C(=O)N(Cc3ccccc3)CC3CCCO3)c(=O)oc12 (stereo not drawn)	inactive	
COC(=O)Nc1ccc(S(=O)(=O)N2CCCCC2C(=O)O)cc1 (stereo not drawn)	inconclusive [inhibitor, single point]	
CCC(C)(C)n1nnnc1C(c1ccc2ncccc2c1)N1CCCCCC1 (stereo not drawn)	inconclusive [inhibitor, single point]	
O=C(O)CSc1ccccn1	inactive	
O=C(C1CC(c2ccc(F)cc2)=NO1)N1CCCc2ccccc21 (stereo not drawn)	inactive	
O=C(/C=C/c1ccccc1)NC(=S)NNC(=O)Cc1cccs1	inconclusive [inhibitor, partial curve]	
Cc1ccc(C)c(S(=O)(=O)Nc2ccc3scnc3c2)c1	active: 1.78 µM	
C=CCN1C(=O)CS/C1=N\N=C\c1cccc([N+](=O)[O-])c1	inconclusive [inhibitor, partial curve, poor fit]	
Cc1cc([N+](=O)[O-])nn1CC(=O)N1CCc2ccccc2C1	inactive	
Nc1nc(SCC(=O)C23CC4CC(CC(C4)C2)C3)n[nH]1	inconclusive [inhibitor, single point]	
O=C(Nc1ccc(OC(F)F)cc1)c1ccccn1	inactive	
CCOC(=O)C1=C(C)OC(N)=C(C#N)C1c1cc2cc(C)ccc2nc1N1CCCCC1 (stereo not drawn)	inconclusive [inhibitor, partial curve]	
Cc1ccc(C(=O)NN2C(=O)C3C4c5ccccc5C(c5ccccc54)C3C2=O)cc1 (stereo not drawn)	inactive	
Cc1ccc(NC(=O)CCNC(=O)c2ccco2)cc1F	inactive	
Cc1nc(NCc2ccccc2)c(C(N)=O)c2c1COC(C)(C)C2	inconclusive [inhibitor, partial curve]	
Cc1ccnc(NS(=O)(=O)c2ccc(NC(=O)C3CCCNC3=O)cc2)n1 (stereo not drawn)	inactive	
COCCn1c(N)c(N(Cc2ccccc2)C(=O)c2ccc3ccccc3c2)c(=O)[nH]c1=O	inconclusive [inhibitor, partial curve, poor fit]	
CN(/N=C\c1ccccc1O)c1ccc2ccccc2n1		inactive: 5.2% [at 13.5 µM]
COc1ccc(Br)cc1CN(C)CC(=O)NCCc1ccccc1	inconclusive [inhibitor, single point]	
Brc1ccc([C@H]2CN3CCSC3=N2)cc1	inactive	
CCN(CC(=O)NC(C)C)Cc1nc2sc3c(c2c(=O)[nH]1)CCC3	inactive	
Cc1ccc(CC2CC(=O)N(CCc3ccc4c(c3)OCO4)C2=O)cc1 (stereo not drawn)	inconclusive [inhibitor, single point]	
O=C(Nc1cc(S(=O)(=O)N2CCCCC2)ccc1O)c1ccccc1NS(=O)(=O)c1ccc(F)c(F)c1	inactive	

SMILES	Potency	activity, negative = inhibition
COc1ccc2cc(C(=O)COC(=O)COc3ccc4c(C)cc(=O)oc4c3)ccc2c1	inconclusive [inhibitor, partial curve]	
CCCC(OC(=O)CC1Sc2ccccc2NC1=O)C(=O)NCc1ccco1 (stereo not drawn)	inconclusive [inhibitor, partial curve]	
Cn1nc(C(=O)NCCOc2ccccc2)c2ccccc2c1=O	inconclusive [inhibitor, single point]	
Cc1cc(C)cc(NC(=O)Nc2ccc(Cl)cn2)c1	inactive	
NNC(=O)c1sc(-c2ccc(Cl)cc2)cc1N	inconclusive [inhibitor, partial curve]	
CCN(CC)C(=O)C1CCN(CC2CC=CCC2)CC1 (stereo not drawn)	inconclusive [inhibitor, single point]	
Cc1c(Br)c([N+](=O)[O-])nn1C(C)C(=O)Nc1ccc2c(c1)OCO2 (stereo not drawn)	inconclusive [inhibitor, single point]	
Nc1ncc(Br)cc1S(=O)(=O)NCCC(=O)N1CCN(c2ccccn2)CC1	inconclusive [inhibitor, single point]	
CCOC(=O)C1C(C(C)=O)=C(c2ccccc2)c2ccccc2N1S(=O)(=O)C(F)(F)F (stereo not drawn)	inconclusive [inhibitor, single point]	
CCCc1ccc(C(=O)/C=C/N(C)C)cc1	inconclusive [inhibitor, single point]	
O=C(CSc1nnc(-c2ccncc2)o1)NC1C2CC3CC(C2)CC1C3 (stereo not drawn)	inactive	
COc1ccc2[nH]c(C)c(C(=O)CN(C)C)c2c1	inconclusive [inhibitor, single point]	
C/C(CCC(=O)OC[C@@H]1O[C@H](C#Cc2ccccc2)C=C[C@@H]1Oc1ccc(C)cc1)=N/OC[C@@H](O)[C@H]1O[C@H]2OC(C)(C)O[C@H]2[C@@H]1O		inactive: -6.89% [at 13.5 µM]
CCCN1C2=NCCN2c2cc(C)c(C)cc21	inactive	
CCCc1cc(=O)[nH]c(SCC(=O)Nc2cc3c(cc2C(C)=O)OCO3)n1	inconclusive [inhibitor, single point]	
CCn1c(SCC(=O)N2CCCc3ccccc32)nnc1-c1ccoc1C	inactive	
CCOC(=O)CN(C(=O)CSc1nnc(CNc2ccc(F)cc2)o1)c1ccccc1	inconclusive [inhibitor, single point]	
Cc1cc(C)nc(Nc2ccc(N3CCCC3)cc2)n1	inconclusive [inhibitor, single point]	
CCOC(=O)C1(CC2CCCCO2)CCN(Cc2nc3ccccc3nc2C)CC1 (stereo not drawn)	inconclusive [inhibitor, single point]	
COc1ccccc1C(=O)N=Nc1c(O)[nH]c2ccc([N+](=O)[O-])cc12	inconclusive [inhibitor, single point]	
Cc1cc(C(=O)CN2CCCCC2)c(C)n1-c1ccc(F)cc1	inactive	
Clc1ccc(C[n+]2cc(-c3ccccc3)n3c2CCCCC3)c(Cl)c1	inactive	
O=C(Nc1ccc(OC(F)(F)C(F)F)c(NC(=O)c2cccc(F)c2)c1)c1cccc(F)c1	inactive	
O=C(c1ccccc1)C1CN(Cc2ccccc2)CCC1(O)c1ccccc1 (stereo not drawn)	active: 0.224 µM	
N=C1C(c2nc3ccccc3c(=O)[nH]2)=C(O)CN1CCc1ccccc1	inconclusive [inhibitor, partial curve]	

SMILES	Potency	activity, negative = inhibition
CCS(=O)(=O)c1ccc(O)c(NC(=O)c2cc(OC)c(OC)c(OC)c2)c1	active: 15.8 µM	
Cc1cc2cc(CNC(=O)CCC(=O)O)ccc2[nH]1	active: 28.2 µM	
c1ccc(C2=Nc3ccccc3NC(c3ccccc3)C2)cc1 (stereo not drawn)	inactive	
O=C(N/N=C/C=C\c1ccccc1[N+](=O)[O-])c1cc(-c2ccccc2)nc2ccccc12	inconclusive [inhibitor, partial curve]	
Cc1ccc(/C=C/C(=O)Nc2cccnc2)o1	active: 10 µM	
COc1ccc(S(=O)(=O)N(Cc2ccccc2)c2ccccc2C(=O)Nc2ccccc2C(=O)NCc2ccco2)cc1	inconclusive [inhibitor, partial curve]	
N=c1sccn1CC(=O)Nc1cccc2ccccc12	inactive	
CCOC(=O)c1cnc2ccccc2c1Nc1cccc(C(=O)O)c1	inconclusive [inhibitor, single point]	
CNC(=O)c1c(NC(=O)c2ccc(N3C(=O)CCC3=O)cc2)sc2c1CCCC2	inconclusive [inhibitor, single point]	
Cc1nc(/C=C/c2ccccc2)cc(/C=C/c2ccccc2)n1	inconclusive [inhibitor, single point]	
O=C(Cc1cccs1)Nc1nc(-c2ccc(F)cc2F)cs1	inconclusive [inhibitor, single point]	
O=c1cnc2cnc(Oc3cccc(Cl)c3)nc2n1C1CC1	inactive	
COC(=O)c1c(C(=O)OC)n(CCCN)c2ccc(C)cc12	inconclusive [inhibitor, single point]	
O=C(Nc1ccc2nc(-c3cccs3)[nH]c2c1)c1ccco1	inconclusive [inhibitor, single point]	
Cc1cc2c(C)c(C)c(=O)[nH]c2cc1N	inconclusive [inhibitor, partial curve]	
COc1ccc(CNC(=O)COC(=O)Cc2ccc(Cl)cc2Cl)cc1	inconclusive [inhibitor, partial curve]	
O=C(c1cnn(C(=O)COc2ccccc2F)c1)c1cc(F)ccc1O	active: 0.398 µM	
CCOc1ccc(N2C(=O)C3C(c4ccccc4)=NN(c4ccccc4)C3C2=O)cc1 (stereo not drawn)	inconclusive [inhibitor, partial curve]	
Cc1nc2ncnn2c(N2CCCC(C(=O)Nc3ccc4c(c3)CCC4)C2)c1C (stereo not drawn)	inconclusive [inhibitor, partial curve, poor fit]	
CCOC(=O)CSc1nnc(CNC(=O)c2cccs2)n1-c1ccccc1	inactive	
CCOC(=O)C1(Cc2ccccc2Cl)CCN(C(=O)CN2CCOC2=O)CC1	inactive	
COCC(=O)Nc1ncc(S(=O)(=O)c2ccc([N+](=O)[O-])cc2)s1	inconclusive [inhibitor, partial curve, poor fit]	
COc1ccccc1N(CC(=O)NC(C)(C)C)S(=O)(=O)c1cccs1	inactive	
